{
  "source": "PubChem BioAssay AID652104",
  "about": "(National Center for Advancing Translational Sciences (NCATS), 2013)",
  "note": "In all, about 410,000 compounds went through this assay and about 7,200 (1.8%) were called active. Inconclusive means that the source gave no clear call. Such entries were picked first, then a sample of the others. Calls come from the whole dose curve; as a rule, active = well fitted activation curve with a large enough effect; inconclusive = small, poorly fitted or top-dose-only effect, or another doubt; inactive = no such curve, though single readings can be large or run the other way. Potencies of inconclusive entries are left out as doubtful fits. Potency is the fitted concentration of half-maximal effect; tags give direction and shape of the fitted curve.",
  "data": [
    {"experiment": "qHTS of TDP-43 Inhibitors; note: nearly all actives have a fitted effect of over 50% in size; for growth rescue (activation): % of control where 0% means no effect", "conditions": "TDP-43 expressing yeast growth rescue, BacTiter-Glo, 24 h; growth rescue (activation): at 46.1 µM (top of the series) unless noted", "procedure,_shortened": "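Cell-based yeast growth screen: TDP-43 expression induced in galactose, inoculum OD600=0.02 after raffinose pregrowth to mid-log. Read-out BacTiter-Glo luminescence at 24 hr, 30 deg C; inhibition of toxicity seen as signal increase.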", "values": [
      {"smiles": "Cc1cccc2c(N=O)c(O)[nH]c12", "Potency": "inconclusive [activator, single point]"},
      {"smiles": "CCOC(=O)c1sc(NC(=O)CCSC)nc1C", "Potency": "inconclusive [activator, single point]"},
      {"smiles": "c1ccc2sc(Nc3nc4cc5c(cc4s3)OCO5)nc2c1", "growth rescue (activation)": "inactive: -4.94%"},
      {"smiles": "CCCCCCCCCCCCCCCCCCNc1ccn(C2OC(COP(=O)(O)OCC3OC(n4cc(F)c(=O)[nH]c4=O)CC3O)C(O)C2O)c(=O)n1", "note": "(centres undefined)", "Potency": "inconclusive [activator, single point]"},
      {"smiles": "CCCCNc1c(-c2ccc(OC)c(SC3CCCCC3)c2)nc2ccc(Cl)cn12", "Potency": "inconclusive [activator, single point]"},
      {"smiles": "CCN(CC)CC(O)c1ccc2ccc3ccc(O)cc3c2c1", "note": "(centres undefined)", "Potency": "inconclusive [activator, partial curve]"},
      {"smiles": "O=[N+]([O-])c1ccc2oc(-c3cccc(O)c3)nc2c1", "Potency": "active: 7.94 µM"},
      {"smiles": "CCOc1ccc(-c2nonc2NC(=O)c2oc3ccc(Cl)cc3c2C)cc1", "growth rescue (activation)": "inactive: 8.22%"},
      {"smiles": "Cc1cccc(NC(=O)C(=O)NCC(c2cccnc2)N2CCc3ccccc32)c1C", "note": "(centres undefined)", "growth rescue (activation)": "inactive: 9.92%"},
      {"smiles": "O=C(Cn1cc(S(=O)(=O)c2ccc(F)cc2)c(=O)c2cc3c(cc21)OCO3)Nc1ccccc1", "growth rescue (activation)": "inactive: 10.9%"},
      {"smiles": "CCCCCCCN(C(=O)CCl)c1ccccc1C", "Potency": "inconclusive [activator, full curve]"},
      {"smiles": "Cc1ccc(C(=O)N/C(=C\\c2ccccc2F)c2nc(=S)[nH][nH]2)cc1", "growth rescue (activation)": "inactive: -21.4%"},
      {"smiles": "CCOC(=O)c1sc2ncn(C(C)C(=O)OC)c(=O)c2c1C", "note": "(centres undefined)", "Potency": "inconclusive [activator, single point]"},
      {"smiles": "O=C(Nc1ccccc1Cl)c1cc(C2CCCN(C(=O)CCCc3ccccc3)C2)on1", "note": "(centres undefined)", "Potency": "inconclusive [activator, partial curve]"},
      {"smiles": "COC(=O)CN(C)C1CC(=O)N(c2ccc(Cl)cc2)C1=O", "note": "(centres undefined)", "Potency": "active: 17.8 µM"},
      {"smiles": "Cc1ccc(-c2cc(C(=O)N3CCN(c4ncccn4)CC3)c3ccccc3n2)cc1", "Potency": "inconclusive [activator, single point]"},
      {"smiles": "COc1ccccc1NC(=O)Cc1noc(CSc2cccc[n+]2[O-])n1", "Potency": "inconclusive [activator, partial curve]"},
      {"smiles": "CCCc1cc2c(=O)c(-c3ccc4c(c3)OCCO4)coc2cc1OS(C)(=O)=O", "Potency": "inconclusive [activator, partial curve]"},
      {"smiles": "Cc1cccc(C)c1N=Nc1c(C)cc(O)cc1C", "growth rescue (activation)": "inconclusive: -87.9% [activator]"},
      {"smiles": "N#Cc1ccc(S(=O)(=O)N2CCCCC2c2cc(C(=O)NCc3ccccc3)no2)cc1", "note": "(centres undefined)", "Potency": "inconclusive [activator, partial curve]"},
      {"smiles": "Cc1nc(Nc2cccc(Cl)c2)c2oc3ccccc3c2n1", "Potency": "active: 15.8 µM"},
      {"smiles": "CCOC(=O)C1=C(Nc2cccc(Cl)c2)OCC1=O", "Potency": "inconclusive [activator, partial curve]"},
      {"smiles": "COc1ccc(-c2ccc(NS(=O)(=O)c3ccccc3)cc2)nn1", "Potency": "inconclusive [activator, partial curve]"},
      {"smiles": "Cc1cc(C)n(CCc2nc(-c3ccc(C(C)(C)C)cc3)cs2)n1", "Potency": "inconclusive [activator, partial curve]"},
      {"smiles": "COc1cccc(-c2oc3c(c2C(=O)OCCN(C)C)C(O)CCC3)c1", "note": "(centres undefined)", "Potency": "inconclusive [activator, partial curve, poor fit]"},
      {"smiles": "Cc1c(C(=O)Nc2ccccc2)oc2c1C(=O)CC(C)(C)C2", "Potency": "inconclusive [activator, single point]"},
      {"smiles": "Cc1c(C)n(CCC#N)c2ccccc12", "Potency": "inconclusive [activator, single point]"},
      {"smiles": "COC(=O)c1cccc(NC(=O)Cc2nc(-c3ccccc3)sc2-c2ccc(C)cc2)c1", "growth rescue (activation)": "inactive: -7.7%"},
      {"smiles": "O=C(O)/C=C/C(=O)Nc1ccc(OC(F)(F)F)cc1Br", "Potency": "inconclusive [activator, single point]"},
      {"smiles": "COc1ccc(C(CC(=O)Nc2nccs2)C(C)C)cc1", "note": "(centres undefined)", "Potency": "inconclusive [activator, full curve, poor fit]"},
      {"smiles": "COc1cccc(CNC(=O)c2cc(C3CC3)nc3c2cnn3C(C)C)c1", "Potency": "active: 17.8 µM"},
      {"smiles": "CN(CC1COc2ccccc2O1)C(=S)NC1CCCCC1", "note": "(centres undefined)", "Potency": "inconclusive [activator, single point]"},
      {"smiles": "O=C(COc1c(Cl)cccc1Cl)NN1C(=O)CSC1=S", "Potency": "inconclusive [activator, partial curve, poor fit]"},
      {"smiles": "Cc1ccc(-c2nn(-c3cccc([N+](=O)[O-])c3)c3c2cnc2ccc(F)cc23)cc1", "Potency": "inconclusive [activator, full curve, poor fit]"},
      {"smiles": "CC(C)Cc1nc(N2CCN(C(=O)C(C)C)CC2)c(C#N)c2c1CCC2", "Potency": "inconclusive [activator, partial curve]"},
      {"smiles": "COc1ccc(/C=C/c2c(-c3ccc(OC)cc3)sc3cc(OC)c(OC)cc23)cc1", "Potency": "inconclusive [activator, partial curve]"},
      {"smiles": "COc1cc(OC)c(NC(=O)CSC2=Nc3ccccc3N=C(c3ccc(F)cc3)C2)cc1Cl", "growth rescue (activation)": "inactive: 20.2%"},
      {"smiles": "Cc1cccc(Nc2nc(Nc3cccc(C)c3)nc(N3CCOCC3)n2)c1", "Potency": "active: 15.8 µM"},
      {"smiles": "COc1ccc(-n2c(SCC#N)nc3ccccc3c2=O)cc1", "Potency": "inconclusive [activator, single point]"},
      {"smiles": "CCOC(=O)c1c(C=O)c(C)n(Cc2ccc(Cl)cc2)c1C", "Potency": "active: 35.5 µM"},
      {"smiles": "O=S(=O)(NCc1ccc(F)cc1)c1ccc2[nH]c3c(c2c1)CCCCC3", "Potency": "inconclusive [activator, single point]"},
      {"smiles": "Cc1ccc(NS(=O)(=O)c2c(C)ccc3nsnc23)c([N+](=O)[O-])c1", "Potency": "active: 22.4 µM"},
      {"smiles": "CN(C)/C=C/C(=O)c1ccc2noc(-c3ccc(F)cc3)c2c1", "growth rescue (activation)": "inconclusive: -93.5% [activator]"},
      {"smiles": "CCOC(=O)c1ccc(-c2ccc(/C=C(\\C#N)C(=O)Nc3c(C)cccc3Cl)o2)cc1", "Potency": "inconclusive [activator, partial curve, poor fit]"}
    ]}
  ]
}
